Laboratory results as given in PubChem BioAssay AID493208 (National Center for Advancing Translational Sciences (NCATS), 2011).
Screen size: about 44,000 compounds; about 340 (0.77%) were called active. Not shown: some 5% with an inconclusive outcome. Calls come from the whole dose curve; as a rule, active = well fitted inhibition curve with a large enough effect; inconclusive = small, poorly fitted or top-dose-only effect; inactive = flat fitted curve, though single readings scatter. The list shows a part of the results.

Test: Acumen qHTS Assay for Inhibitors of the mTORC1 Signaling Pathway in MEF (Tsc2-/-, p53-/-) Cells: Sytravon; note: nearly all actives have a fitted effect of over 50% in size;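 for activity change, negative = inhibition: plate controls were DMSO for no effect and rapamycin for full effect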
Details: phospho-rpS6 immunofluorescence/PI, 24 h; series mostly up to 38.3 µM; activity change, negative = inhibition: at the top concentration
Outline: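 Plate MEFs (Tsc2-/-, p53-/-, empty vector) in DMEM/10% FBS; after 24 h add compound, incubate 24 h at 37 degree Celsius; fix in PFA/TX-100, block, stain phospho-rpS6 and 10 uM PI; scan at 488 nm; report % positive cells.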
Potency is the fitted concentration of half-maximal effect.

Row | Compound | activity change, negative = inhibition | Potency
1 | CCC(C(=O)Nc1ccccc1C(=O)OC)n1nc(C)c2c(C)n(-c3ccc(C)cc3)nc2c1=O (stereo not drawn) | inactive: -7.23% | 
2 | Cc1ccc(C)c(NC(=O)c2ccc3c(c2)CCN3S(C)(=O)=O)c1 | inactive: -1.72% | 
3 | COc1ccc(NC(=O)C(c2ccc(C)cc2)N(C)C(=O)Cc2cccs2)cc1 (stereo not drawn) | inactive: -1.55% | 
4 | COc1ccccc1CNC(=O)CSc1ncc2c(n1)-c1ccc(Cl)cc1N(Cc1ccccc1)S2(=O)=O | inactive: -1.69% | 
5 | Cc1c(Cl)cccc1NC(=O)C(C)n1c(=O)cc(-c2ccccc2)c2c(C)nn(C)c21 (stereo not drawn) | inactive: -2.17% | 
6 | CCc1ccc(NC(=O)c2sc3nc(C)c(Cl)c(C)c3c2N)cc1 | inactive: -0.767% | 
7 | O=C(Cn1c(-c2cccs2)cc2cc(Cl)ccc21)N1CCN(c2ccccc2)CC1 | inactive: -13.1% | 
8 | CCOc1ccccc1C(=O)N1CC(=O)Nc2ccc(Cl)cc2C1c1ccccc1 (stereo not drawn) | inactive: 10.8% | 
9 | COc1ccc(-c2cccc(NS(=O)(=O)c3cc(C)c(OC)c(C)c3C)c2)nn1 | inactive: -11.3% | 
10 | Cc1ccc(NC(=O)C2CCCN2S(=O)(=O)c2ccc3c(c2)CCCC(=O)N3)cc1C (stereo not drawn) | inactive: -4.65% | 
11 | O=C(Cn1c(=O)c2cc(Cl)ccc2n2nncc12)Nc1ccccc1 | inactive: 0.853% | 
12 | O=C(CC(c1cccs1)N1Cc2ccccc2C1=O)Nc1ccc(F)c(Cl)c1 (stereo not drawn) | inactive: 0.828% | 
13 | CC(=O)Nc1cc(C(=O)NCc2ccc(C)cc2)ccc1Sc1ccc(C)cc1 | inactive: 5.89% | 
14 | C=CCC(CC=C)(CNC(=O)C(=O)Nc1cccc(C(F)(F)F)c1)c1ccccc1 | inactive: 0.999% | 
15 | CCc1ccc(-c2nc(CN3CCCC(C(=O)N4CCN(c5cc(Cl)ccc5C)CC4)C3)c(C)o2)cc1 (stereo not drawn) | inactive: 0.385% | 
16 | CC(CNC(=O)Cn1ccc2cc(S(=O)(=O)N3CCCCCC3)ccc21)c1ccccc1 (stereo not drawn) | inactive: -10.1% | 
17 | COc1ccc(Cl)cc1NC(=O)CN(C)S(=O)(=O)c1ccc2c(c1)CCCN2C(C)=O | inactive: -17.5% | 
18 | CCOC(=O)c1ccc(N2CCN(c3cccc(Cl)c3)CC2)c(NC(=O)Nc2ccc(OC)cc2OC)c1 | inactive: -15.9% | 
19 | Cc1cccc(-n2c(=O)c3c(c4cc(C)ccc4n3C)n(CC(=O)NCCC3=CCCCC3)c2=O)c1 | inactive: -5.82% | 
20 | COc1ccc(-c2noc(-c3cccnc3NCc3ccco3)n2)cc1 | inactive: 3.85% | 
21 | COc1ccc(-c2onc(C)c2C)cc1S(=O)(=O)NCC1CCN(Cc2ccccc2F)CC1 | inactive: -20.5% | 
22 | CCOC(=O)CSc1nc2ccccc2c(=O)n1CCc1ccc(OC)c(OC)c1 | inactive: -10% | 
23 | Cc1ccc(Oc2c(C(F)(F)F)oc3cc(OCC(=O)NC4CCCCC4)ccc3c2=O)cc1 | inactive: 0.869% | 
24 | CCCN1C(=O)C(O)(CC(=O)c2ccc(CC)cc2)c2ccccc21 (stereo not drawn) |  | active: 14.7 µM

Row | Compound | activity change, negative = inhibition | Potency
25 | CCc1cccc(C)c1NC(=O)CSc1nc(C)cc(C)c1C(=O)Nc1ccccc1 | inactive: 0.7% | 
26 | CC(C)Sc1ncc(Cl)c(C(=O)Nc2nnc(C(C)C)s2)n1 | inactive: -9.65% | 
27 | CCc1ccc(NC(=O)Cn2c(=O)oc3cc(S(=O)(=O)N4CCCCCC4)ccc32)cc1 | inactive: -0.766% | 
28 | Cc1onc(-c2ccc(F)cc2F)c1C(=O)Nc1cccc(C(F)(F)F)c1 | inactive: 1.59% | 
29 | CN(C(=O)C(=O)Nc1ccc2nc3n(c(=O)c2c1)CCCCC3)c1cccc(C(F)(F)F)c1 | inactive: 2.37% | 
30 | CCc1ccc(CNC(=O)c2cc(-c3ccc(Br)s3)nc3ccccc23)cc1 | inactive: -8.63% | 
31 | O=C(Nc1ccccc1)c1cccc(S(=O)(=O)Nc2cccc(F)c2)c1 | inactive: -8.06% | 
32 | CCCOc1ccc(C2C(=O)N(C3CCC(C)CC3)CC(=O)N2CCC2=CCCCC2)cc1OC (stereo not drawn) | inactive: 7.47% | 
33 | COc1ccc(OC)c(-c2cc(C(=O)NC(C)c3ccccc3)no2)c1 (stereo not drawn) | inactive: -1.09% | 
34 | COc1cccc(-c2ccc3c(N)c(C(=O)NCc4ccc(Cl)cc4)sc3n2)c1 | inactive: -4.53% | 
35 | Cc1cccc(N2CCN(C3(c4ccccc4)C(=O)c4ccccc4C3=O)CC2)c1C | inactive: -3.67% | 
36 | Cc1ccc(S(=O)(=O)N2CCOCC2)cc1C(=O)Nc1ccccc1C(=O)O | inactive: -0.641% | 
37 | Cc1ccc2onc(CC(=O)N(C)c3ccccc3)c2c1 | inactive: -3.73% | 
38 | O=S(=O)(Nc1ccc2nc(-c3cccc(Cl)c3)oc2c1)c1ccccc1 | inactive: 0.974% | 
39 | O=S(=O)(Nc1nc2n(n1)C(c1ccc(F)cc1)C=C(c1ccccc1)N2)c1ccc(Cl)cc1 (stereo not drawn) | inactive: 2.06% | 
40 | CCn1cc(C(=O)NCc2ccc(C)cc2)c(=O)c2cc(S(=O)(=O)N3CCCCCC3)ccc21 | inactive: -6.5% | 
41 | CCOc1ccc(CNC(=O)c2ccc(NC(=O)N3CCCCc4ccccc43)cc2)cc1OC | inactive: -6.22% | 
42 | COc1ccccc1CNC(=O)c1ccc2nc(-c3ccccc3)c(-c3ccccc3)nc2c1 | inactive: 4.52% | 
43 | O=C(CCc1nc2cccnc2n1Cc1cccs1)Nc1cccc(Cl)c1 | inactive: -0.225% | 
44 | Cc1nn(C)c2c1c(C(F)(F)F)cc(=O)n2Cc1cccc(Br)c1 | inactive: -3.99% | 
45 | CCOC(=O)c1cc(-c2ccccc2)n(CCC(=O)Nc2ccc(Cl)c(C(F)(F)F)c2)c1C | inactive: -22.5% | 
46 | Cc1cccc(NS(=O)(=O)c2ccc(-n3cccn3)cc2)c1C | inactive: -2.98% | 
47 | CC(C)CNc1nc(Oc2ccc(OCC(N)=O)nn2)nc(N2CCOCC2)n1 | inactive: -4.36% | 
48 | Cn1cc(S(=O)(=O)N2CCCCCC2)cc1C(=O)NCc1ccccc1Cl | inactive: -6.41% | 
